Consider 167 variants from the RNAGym collection of RNA variant scans (doi:10.7554/elife.90254).

The source gives no read counts; variants with many changes may rest on few reads.

Sequences and labels used below:
B1: LINE1-mini (parent)
chain: GGCAGAGCUCAACACAGCGUGGCAAAGUGGCUGUGGCUAGACUGCC

This series covers variants of B1. The series is described as follows: self-cleavage, relative activity (ratio to wild type); higher = more cleavage; in vitro, sequencing; the parent is a self-cleaving ribozyme.
For G2A A6G C10A G27U G40U C45G, the self-cleavage amounted to 0.01.

Take G1U G30A C45A: the self-cleavage stood at 0.48.

On to G1U G7C C23A G30U C37A, for which the self-cleavage is 0.01.

Consider G1U G29A U34G C46A, for which the self-cleavage came to 0.5.

G1U G2C C8G C46G: the self-cleavage came out at 0.01.

On to G1U G5A A16G G35A C42A, for which the self-cleavage is 0.04.

Take G1U G5A C18A U28C G29A G30C: the self-cleavage came out at 0.

As to G2A A4U A26G, the self-cleavage was found to be 0.71.

Consider G1U G5A A24U G30U U34A, for which the self-cleavage was determined as 0.01.

For the variant G1U G19A C37U, the self-cleavage stood at 0.

Turning to G1U G7C G17U A25U U32C G36A A41U, the self-cleavage was 0.02.

Take G1U G5A G7A G30C C31G G33C: the self-cleavage was determined as 0.05.

As for G2A A6C G30A C45A, the self-cleavage was 0.24.

G1U G2C A11G A12U U38G A41U: the self-cleavage was found to be 0.02.

Regarding G1U G17A U32C, the self-cleavage was 0.02.

On to G1U G2C U9A, for which the self-cleavage amounted to 0.03.

Regarding G2A A6U C10A A14C G17C C23A U32G, the self-cleavage stood at 0.02.

With G1U G2C G17U A24U G44U, the self-cleavage turned out to be 0.01.

In the case of G1U G2U C3U A12G, the self-cleavage came to 0.05.

With G1U U20G C31U U38G G44A C46G, the self-cleavage was determined as 0.08.

Turning to G1U G2A A6C G7A A11G A12G C15G U38A, the self-cleavage came to 0.01.

G1U G7A C15A G19C G33A: the self-cleavage came to 0.05.

G2A A4U G22U: the self-cleavage is 0.39.

For G1U G30A U32C C45U C46A, the self-cleavage came out at 0.07.

Turning to G1U G7C C10A A14G C15G G22A, the self-cleavage turned out to be 0.03.

Take G1U U34C C46A: the self-cleavage worked out at 0.12.

Turning to G1U G30A G33A G40C, the self-cleavage is 0.01.

For the variant G2A A4C A14C, the self-cleavage worked out at 0.2.

Take G1U G5U U9C A16G: the self-cleavage turned out to be 0.02.

Regarding G1U G2A G22A A25G A26U G33C U34G, the self-cleavage was found to be 0.01.

G1U G5A A6G U20A A25U G27C U34C: the self-cleavage was 0.04.

As to G2A A4C G7U A14G C15A C23U G29C, the self-cleavage came to 0.15.

Take G1U G29A C42U: the self-cleavage was found to be 0.36.

Turning to G2A A4U G19U A25C G27U, the self-cleavage was found to be 0.19.

For G1U G2A A6U C13U G19U G35U, the self-cleavage is 0.07.

On to G1U C37G U43C, for which the self-cleavage stood at 0.02.

For the variant G1U C37G U43A, the self-cleavage was 0.04.

Regarding G1U G21U C31U G44A, the self-cleavage turned out to be 0.

Take G1U G29U U38C: the self-cleavage came out at 0.23.

As for G1U G21U A26G, the self-cleavage stood at 0.58.

Turning to G1U C37A U43G C46A, the self-cleavage was 0.04.

For G1U G19C G21A G27C G36U A41G C46U, the self-cleavage turned out to be 0.02.

Consider G2A A6G A26U G27C G33C, for which the self-cleavage came out at 0.34.

As for G1U U20A A39U U43C, the self-cleavage stood at 0.04.

Regarding G1U G19A U28G, the self-cleavage was 0.02.

On to G1U G2A U9C G17C G21C U32G, for which the self-cleavage was 0.01.

Turning to G1U G21A G30C A41C, the self-cleavage came to 0.

As to G1U G33A G44A, the self-cleavage amounted to 0.07.

G1U G5U U9A: the self-cleavage stood at 0.02.

For G1U G29U U43G, the self-cleavage was found to be 0.06.

For the variant G1U G5U C15A C18A, the self-cleavage was 0.03.

G1U G5U C15A U28A G44A: the self-cleavage was determined as 0.01.

In the case of G1U G21C G27U C37A, the self-cleavage amounted to 0.02.

For the variant G1U G19U U28A G40C, the self-cleavage came out at 0.01.

Consider G1U U32C U34A, for which the self-cleavage was determined as 0.

As to G1U G5C C42U, the self-cleavage worked out at 0.03.

For G2A A6U C13G A16G A25C A26G, the self-cleavage amounted to 0.12.

On to G1U G2U U20A C46U, for which the self-cleavage was found to be 0.09.

On to G1U C23A C31G C37G C45G, for which the self-cleavage was found to be 0.

For the variant G1U G2C C13U U20A, the self-cleavage worked out at 0.09.

G1U G5U C8A A26G: the self-cleavage turned out to be 0.08.

Consider G1U G40U G44A C46A, for which the self-cleavage came to 0.04.

With G2A A4G C23G U34C C46U, the self-cleavage is 0.24.

On to G1U U34A U43G, for which the self-cleavage stood at 0.01.

For G1U G2C G21C, the self-cleavage was found to be 0.05.

As for G1U G2C A12G, the self-cleavage stood at 0.

Turning to G1U G5U A11U A14C C31G, the self-cleavage is 0.01.

For the variant G1U C23G G33U G36U A39C G40A, the self-cleavage came to 0.02.

In the case of G1U G30C G33C, the self-cleavage came to 0.

Consider G1U G17C G22C, for which the self-cleavage was 1.

Consider G2A A6U A12U C37G, for which the self-cleavage came out at 0.18.

On to G1U U9C C15A, for which the self-cleavage was found to be 0.02.

With G1U G5C G22A G27A G30U U32G G33U, the self-cleavage turned out to be 0.04.

Turning to G1U C37G C45A, the self-cleavage came to 0.01.

G1U U9A C15U G30U G33U: the self-cleavage was 0.01.

For G1U G22U A39G, the self-cleavage is 0.03.

Take G1U G27C G29C G30A: the self-cleavage is 0.93.

G1U G17A C31A C45U C46U: the self-cleavage was 0.05.

In the case of G1U G30A C31U, the self-cleavage is 0.03.

Take G1U G19C G36A: the self-cleavage came out at 0.01.

G1U G21U A25U A39U C46U: the self-cleavage worked out at 0.25.

G1U G36U U38C: the self-cleavage worked out at 0.

Take G1U G2U G29A: the self-cleavage came to 0.32.

In the case of G1U U43G C46U, the self-cleavage is 0.11.

Consider G1U G2U A4U C31A, for which the self-cleavage came to 0.03.

As to G1U G7A G17C, the self-cleavage is 0.03.

As for G1U U20C U43A, the self-cleavage was 0.01.

As to G1U U34A G36C G40U C46G, the self-cleavage came out at 0.

For G1U G5U G17C C23A A24G, the self-cleavage stood at 0.03.

G1U G19C C23A C42U: the self-cleavage was 0.03.

As to G1U G33U C45A, the self-cleavage was found to be 0.04.

Regarding G1U G30U G40U, the self-cleavage stood at 0.04.

For G1U G29C G33C, the self-cleavage stood at 0.01.

Regarding G1U U9G C18U G35A G44U C46A, the self-cleavage amounted to 0.

For the variant G1U G2C G22U, the self-cleavage is 0.05.

Consider G1U G5A G19C G29A C45A, for which the self-cleavage stood at 0.07.

With G1U G2A U20C G22C A24C U32C G33U C45A, the self-cleavage worked out at 0.1.

As for G1U G2U G7U C8G A12C C31A G36A, the self-cleavage was 0.01.

Turning to G1U G7C C8U C23U, the self-cleavage worked out at 0.02.

In the case of G1U G22C U43A, the self-cleavage amounted to 0.01.

Take G1U G29U G44A: the self-cleavage stood at 0.3.

For G1U G2U C10U, the self-cleavage was 0.02.

As to G1U G21U A24C, the self-cleavage came out at 0.21.

Turning to G2A A4C C8U G21A A25C, the self-cleavage was found to be 0.04.

Take G2A A6G G22A A25U G35A: the self-cleavage was determined as 0.06.

Regarding G1U G7A C10U U20C G29C, the self-cleavage worked out at 0.01.

As to G1U G7U C15A, the self-cleavage turned out to be 0.07.

As for G2A A6G A12G, the self-cleavage was determined as 0.03.

With G1U G22A C37G A39G C46A, the self-cleavage was found to be 0.

As to G1U G35U G44C, the self-cleavage was 0.06.

For the variant G1U U28C G35U A41G, the self-cleavage was found to be 0.05.

As for G1U U9G A24U, the self-cleavage was found to be 0.01.

For G1U G40C G44A, the self-cleavage was found to be 0.05.

In the case of G1U G2C A6C C10A A12C A14C G33C, the self-cleavage came to 0.01.

With G1U G2C C18A G21U G40A, the self-cleavage stood at 0.01.

With G2A A4G A12U, the self-cleavage came to 0.33.

Consider G1U G21C G33A, for which the self-cleavage is 0.06.

In the case of G1U G2U A25U G27U U28G, the self-cleavage was 0.03.

On to G1U G19U G33A G40U, for which the self-cleavage turned out to be 0.02.

In the case of G1U G21U C23G U38C A41C, the self-cleavage was found to be 0.02.

With G1U C23U A25G, the self-cleavage is 0.09.

As to G1U G17U C42U, the self-cleavage turned out to be 0.09.

In the case of G1U G36U C46A, the self-cleavage was 0.01.

With G1U U9G C13U, the self-cleavage was 0.05.

Regarding G1U G22U G27A C31A G36U A39G A41C, the self-cleavage stood at 0.01.

Take G1U G2A G29U: the self-cleavage turned out to be 0.34.

For G1U G2U C10U G21A C37A, the self-cleavage came to 0.04.

Regarding G1U G7C A25G, the self-cleavage was 0.04.

Take G1U G27C G44U: the self-cleavage amounted to 0.06.

Take G1U G22C C23G: the self-cleavage turned out to be 0.12.

As to G1U G5U C37U C45U, the self-cleavage turned out to be 0.07.

With G1U G2C C10A G19U A26G, the self-cleavage worked out at 0.01.

As to G1U G2C C13U A16G, the self-cleavage is 0.08.

Take G1U G2U A6C C10G A16U G30C: the self-cleavage turned out to be 0.

For G1U G17A A24U G30U G33A, the self-cleavage amounted to 0.05.

Turning to G1U G5U U28C C31G A41C, the self-cleavage was found to be 0.01.

On to G2A A4G C15A C31G G36A G40U, for which the self-cleavage was 0.07.

As to G1U G19A A26C A41C C42A, the self-cleavage was found to be 0.01.

Regarding G2A A4G C15U G22A G36C C37G, the self-cleavage turned out to be 0.04.

Consider G1U G5C C18G U20C G22C, for which the self-cleavage is 0.

Take G2A A6G A14C A16U G35U G40U: the self-cleavage was 0.01.

Take G2A A4G A11U C15A U34G: the self-cleavage came out at 0.01.

Consider G1U G19A G33A G40U, for which the self-cleavage was found to be 0.05.

Turning to G1U G7A U9C A11U G21A G22A, the self-cleavage turned out to be 0.03.

In the case of G1U G5A G7A C8G G22A A24G G36C C45U, the self-cleavage came to 0.21.

With G2A A6C C10A, the self-cleavage turned out to be 0.02.

On to G1U G5U G21U A41G, for which the self-cleavage worked out at 0.02.

As for G1U G19A U43A, the self-cleavage came to 0.13.

With G1U G30A C31G G35C, the self-cleavage was determined as 0.08.

As for G2A A6C U34C, the self-cleavage stood at 0.31.

As to G1U G5U G17U G19C, the self-cleavage is 0.09.

Turning to G1U G40U C45U, the self-cleavage was found to be 0.1.

On to G1U G5A A39U A41G C42U U43C, for which the self-cleavage came to 0.15.

As for G1U G19A U34C G44A, the self-cleavage stood at 0.04.

On to G1U C37A U38A, for which the self-cleavage came out at 0.09.

As for G1U G30C G36A C46G, the self-cleavage worked out at 0.01.

As to G1U U9G A11U G36C A39C, the self-cleavage was found to be 0.01.

Turning to G2A A4C A24U C37G U38G, the self-cleavage was 0.03.

For the variant G1U G5A C15A, the self-cleavage stood at 0.14.

On to G1U C23U U38G C42A C45U, for which the self-cleavage turned out to be 0.03.

For G1U G5U C10A C15U, the self-cleavage came out at 0.02.

For the variant G1U G2C C10A U28C A39G, the self-cleavage came out at 0.

For the variant G1U C23A C31U, the self-cleavage came to 0.1.

For the variant G1U U38G G40C, the self-cleavage stood at 0.01.

Take G1U G7U G44U: the self-cleavage was 0.05.

G2A A6C A16C G17U: the self-cleavage worked out at 0.21.

For G1U G7A U34A, the self-cleavage came out at 0.02.
